# Source: the supplement of paper PMC9135407
# Several values for one entry are separate records, joined by “and”; a condition that tells them apart may be missing. Equal entries are not always repeated. Structures can show the parent of a compound that is named as a salt. The whole screen tested about 5,800 compounds, of which about 620 (11%) showed activity.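 Rule for the calls: active = score above a cut-off or among the top three wells of a plate; in these data no inactive exceeds 0.85.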 The entries are a selection whose mix differs from that of the whole data set.
# Tested on: primary human hepatic stellate cells (donor 1)
# Test: scaled lipid accumulation score (0 = DMSO-like, 1 = nortriptyline-like); higher = stronger HSC inactivation (lipid re-accumulation), active = hit call of the paper
# Settings: 48 h
# [1] = library stock concentration: 3.33 mM
# [2] = library stock concentration: 10 mM
# [3] = library stock concentration: 1 mM
# [4] = library stock concentration: 80 uM
# [5] = library stock concentration: 400 uM
# [6] = library stock concentration: 2 mM
smiles,measurement,setting,value
CCCCCCNC(=O)n1cc(F)c(=O)[nH]c1=O [Carmofur],scaled lipid accumulation score,[1],inactive: ≤ 0
same,scaled lipid accumulation score,[2],inactive: ≤ 0 and inactive: 0.276
CS(=O)(=O)O.N=C(NC(=O)c1nc(Cl)c(N)nc1N)Nc1ccccc1 [Phenamil methanesulfonate],scaled lipid accumulation score,[2],active: 1.15
CC(C)=CCC1=C(O)C(=O)c2ccccc2C1=O [Lapachol],scaled lipid accumulation score,[2],inactive: ≤ 0
COc1cc2ncnc(Nc3cccc(Cl)c3)c2cc1OC [AG-1478 (Tyrphostin AG-1478)],scaled lipid accumulation score,[2],active: 1.07
CCN(CC)CC#CCOC(=O)C(O)(c1ccccc1)C1CCCCC1.Cl (configuration not stated) [Oxybutynin Chloride],scaled lipid accumulation score,[2],active: 0.862
Cl.N/C(=N\C(=O)c1nc(Cl)c(N)nc1N)NCc1ccc(Cl)cc1Cl,scaled lipid accumulation score,library stock concentration: 11.8 mM,active: 0.876
CCC1(O)CC2CN(CCc3c([nH]c4ccccc34)[C@@](C(=O)OC)(c3cc4c(cc3OC)N(C=O)C3[C@]45CCN4CC=C[C@@](CC)([C@@H](OC(C)=O)[C@]3(O)C(=O)OC)[C@H]45)C2)C1.O=S(=O)(O)O (some centres not stated) [Vincristine sulfate],scaled lipid accumulation score,[2],active: 0.897
Nc1nc(=O)n([C@@H]2CS[C@H](CO)O2)cc1F [Emtricitabine],scaled lipid accumulation score,[1],inactive: 0.015
same,scaled lipid accumulation score,library stock concentration: 8.1 mM,inactive: ≤ -0.006
same,scaled lipid accumulation score,[2],inactive: ≤ 0
Cl.O=S(=O)(c1cccc2c(Cl)cccc12)N1CCCNCC1,scaled lipid accumulation score,[2],active: 0.935
COc1ccc(Cl)cc1C(=O)NCCc1ccc(S(=O)(=O)NC(=O)NC2CCCCC2)cc1 [Glybenclamide],scaled lipid accumulation score,[2],inactive: ≤ -0.07
COc1ccc(Cl)cc1C(=O)NCCc1ccc(S(=O)(=O)NC(=O)NC2CCCCC2)cc1 [Glyburide],scaled lipid accumulation score,[1],inactive: ≤ 0
same,scaled lipid accumulation score,library stock concentration: 4 mM,inactive: ≤ -0.006 and inactive: ≤ 0
same,scaled lipid accumulation score,[2],inactive: ≤ 0 and inactive: 0.016
COc1ccc(Cl)cc1C(=O)NCCc1ccc(S(=O)(=O)NC(=O)NC2CCCCC2)cc1 [Glibenclamide],scaled lipid accumulation score,,inactive: ≤ 0
same,scaled lipid accumulation score,[2],inactive: 0.007
CC#C[C@]1(O)CC[C@H]2[C@@H]3CCC4=CC(=O)CCC4=C3[C@@H](c3ccc(N(C)C)cc3)C[C@@]21C [Mifepristone],scaled lipid accumulation score,,inactive: 0.045
same,scaled lipid accumulation score,[3],inactive: 0.034
same,scaled lipid accumulation score,[1],inactive: ≤ 0
same,scaled lipid accumulation score,library stock concentration: 4.7 mM,inactive: ≤ 0
same,scaled lipid accumulation score,[2],inactive: ≤ 0 and inactive: 0.093 and inactive: ≤ -0.006
CC#C[C@]1(O)CC[C@H]2[C@@H]3CCC4=CC(=O)CCC4=C3[C@@H](c3ccc(N(C)C)cc3)C[C@@]21C,scaled lipid accumulation score,[2],inactive: ≤ 0
"COc1cc(SC)ccc1C(=O)N1CCC(Cc2ccccc2)CC1 [p38 MAP Kinase Inhibitor VI, JX401]",scaled lipid accumulation score,[1],inactive: ≤ 0
COc1cc(SC)ccc1C(=O)N1CCC(Cc2ccccc2)CC1,scaled lipid accumulation score,[2],inactive: 0.484 and inactive: ≤ -0.001
"CC(C)(C)c1cc(O)c(C(C)(C)C)cc1O [2,5-Ditertbutylhydroquinone]",scaled lipid accumulation score,library stock concentration: 22.5 mM,inactive: 0.463
CC(C)c1ccccc1S(=O)(=O)c1cc(N)c2ncccc2c1[N+](=O)[O-],scaled lipid accumulation score,[2],inactive: 0.26
Cc1ccc(S(=O)(=O)Nc2nc3ccccc3nc2Nc2ccc3nsnc3c2)cc1,scaled lipid accumulation score,[4],inactive: ≤ -0.009
same,scaled lipid accumulation score,[5],inactive: ≤ -0.009
same,scaled lipid accumulation score,[6],inactive: ≤ -0.009
same,scaled lipid accumulation score,[1],inactive: ≤ 0
same,scaled lipid accumulation score,[2],inactive: ≤ 0 and inactive: ≤ -0.009
N#C/C(=C1/SC[C@@H](c2ccc(Cl)cc2Cl)S1)n1ccnc1 [Luliconazole],scaled lipid accumulation score,[1],inactive: ≤ 0
same,scaled lipid accumulation score,[2],inactive: ≤ -0.001
NC(N)=N[C@@H](CCC(=O)O)C(=O)O [.alpha.-Guanidinoglutaric Acid],scaled lipid accumulation score,[3],inactive: ≤ 0
NC(N)=N[C@@H](CCC(=O)O)C(=O)O [alpha-Guanidinoglutaric acid],scaled lipid accumulation score,[2],inactive: ≤ -0.007
COc1cc(N2CCN(C)CC2)ccc1Nc1ncc2c(n1)N(C)c1ccccc1C(=O)N2C,scaled lipid accumulation score,[4],inactive: 0.087
same,scaled lipid accumulation score,[5],inactive: 0.062
same,scaled lipid accumulation score,[6],inactive: 0.241
same,scaled lipid accumulation score,[2],inactive: 0.703
C[N+](C)(C)CC(O)CC(=O)[O-] (configuration not stated) [Carnitine hydrochloride],scaled lipid accumulation score,[2],inactive: ≤ 0
CCCCC[C@H](O)/C=C/[C@H]1C(=O)C=C[C@@H]1C/C=C\CCCC(=O)O [Prostaglandin J2],scaled lipid accumulation score,[3],inactive: ≤ 0 and inactive: ≤ -0.021
O=C1O[C@H]([C@@H](O)CO)C([O-])=C1O.[Na+] [Sodium ascorbate],scaled lipid accumulation score,[1],inactive: ≤ 0
same,scaled lipid accumulation score,[2],inactive: ≤ -0.001
Clc1ccc2nsnc2c1NC1=NCCN1 [Tizanidine HCl],scaled lipid accumulation score,[1],inactive: ≤ 0
same,scaled lipid accumulation score,library stock concentration: 7.9 mM,inactive: 0.048
same,scaled lipid accumulation score,[2],inactive: 0.029
Clc1ccc2nsnc2c1NC1=NCCN1 [Tizanidine hydrochloride],scaled lipid accumulation score,[2],inactive: ≤ 0 and inactive: 0.009
"Cc1cc(Nc2cc(N3CCN(C)CC3)nc(Sc3ccc(NC(=O)C4CC4)cc3)n2)n[nH]1 [Tozasertib (VX-680, MK-0457) (0.4 mM)]",scaled lipid accumulation score,[5],inactive: ≤ -0.005
"Cc1cc(Nc2cc(N3CCN(C)CC3)nc(Sc3ccc(NC(=O)C4CC4)cc3)n2)n[nH]1 [Tozasertib (VX-680, MK-0457) (10 mM)]",scaled lipid accumulation score,[2],inactive: 0.456
"Cc1cc(Nc2cc(N3CCN(C)CC3)nc(Sc3ccc(NC(=O)C4CC4)cc3)n2)n[nH]1 [VX-680 (Tozasertib, MK-0457)]",scaled lipid accumulation score,[1],inactive: 0.193
same,scaled lipid accumulation score,[2],inactive: 0.038
"Cc1cc(Nc2cc(N3CCN(C)CC3)nc(Sc3ccc(NC(=O)C4CC4)cc3)n2)n[nH]1 [Tozasertib (VX-680, MK-0457) (2 mM)]",scaled lipid accumulation score,[6],inactive: ≤ -0.005
Cc1cc(Nc2cc(N3CCN(C)CC3)nc(Sc3ccc(NC(=O)C4CC4)cc3)n2)n[nH]1,scaled lipid accumulation score,[4],inactive: 0.003
same,scaled lipid accumulation score,[5],inactive: 0.063
same,scaled lipid accumulation score,[6],inactive: 0.248
same,scaled lipid accumulation score,[2],inactive: 0.47
CC(C)Oc1ccc2c(=O)c(-c3ccccc3)coc2c1 [Ipriflavone (Osteofix)],scaled lipid accumulation score,[1],inactive: 0.039
same,scaled lipid accumulation score,[2],inactive: ≤ 0
CC(C)Oc1ccc2c(=O)c(-c3ccccc3)coc2c1,scaled lipid accumulation score,[2],inactive: 0.264
CC(C)OC(=O)CCC/C=C/C[C@H]1C(=O)C[C@@H](O)[C@@H]1/C=C/[C@@H](O)COc1cccc(C(F)(F)F)c1 [9-keto Fluprostenol isopropyl ester],scaled lipid accumulation score,[3],inactive: ≤ 0
